Reference: article PMC4336329 (PLoS ONE, 2015)
In all, about 310,000 compounds went through this assay and about 2,200 (0.71%) showed an effect of 50% or more. Effects have a minus sign here. The list shows a part of the results.

target: human ether-à-go-go-related gene (hERG) potassium channel (human, UniProt Q12809); assay: primary screen, population patch clamp on CHO cells stably expressing hERG
Sequence (Q12809 whole entry, looked up): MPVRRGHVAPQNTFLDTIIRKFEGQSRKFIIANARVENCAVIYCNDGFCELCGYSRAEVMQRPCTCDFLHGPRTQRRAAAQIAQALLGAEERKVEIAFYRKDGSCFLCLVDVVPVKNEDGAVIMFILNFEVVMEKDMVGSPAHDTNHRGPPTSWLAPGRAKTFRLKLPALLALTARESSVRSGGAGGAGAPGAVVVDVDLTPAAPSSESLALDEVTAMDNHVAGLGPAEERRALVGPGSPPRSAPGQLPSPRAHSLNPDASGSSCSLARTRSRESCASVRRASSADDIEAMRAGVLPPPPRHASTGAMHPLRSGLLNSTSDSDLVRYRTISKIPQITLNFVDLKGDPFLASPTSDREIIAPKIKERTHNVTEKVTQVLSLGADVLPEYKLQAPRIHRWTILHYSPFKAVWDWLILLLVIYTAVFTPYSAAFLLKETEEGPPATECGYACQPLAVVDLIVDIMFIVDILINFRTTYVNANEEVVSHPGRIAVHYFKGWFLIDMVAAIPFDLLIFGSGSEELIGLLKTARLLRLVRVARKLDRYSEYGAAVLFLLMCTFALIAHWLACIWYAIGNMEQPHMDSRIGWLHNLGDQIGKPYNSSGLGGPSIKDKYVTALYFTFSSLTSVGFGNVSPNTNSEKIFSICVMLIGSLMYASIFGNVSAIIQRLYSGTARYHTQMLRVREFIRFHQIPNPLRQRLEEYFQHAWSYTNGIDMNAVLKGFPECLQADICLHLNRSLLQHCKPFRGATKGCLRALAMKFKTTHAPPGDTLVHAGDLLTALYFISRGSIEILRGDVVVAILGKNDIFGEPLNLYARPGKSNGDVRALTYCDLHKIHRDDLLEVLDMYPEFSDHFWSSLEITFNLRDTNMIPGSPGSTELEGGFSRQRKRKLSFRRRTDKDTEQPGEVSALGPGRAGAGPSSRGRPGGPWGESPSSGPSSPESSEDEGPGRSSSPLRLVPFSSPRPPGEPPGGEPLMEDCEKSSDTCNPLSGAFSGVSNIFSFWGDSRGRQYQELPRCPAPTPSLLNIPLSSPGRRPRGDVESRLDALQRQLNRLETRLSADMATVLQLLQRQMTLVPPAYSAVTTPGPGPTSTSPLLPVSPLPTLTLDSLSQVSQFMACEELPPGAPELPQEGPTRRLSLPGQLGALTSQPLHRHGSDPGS

Structure (SMILES) | hERG current change (%, negative = inhibition) at 1uM [%]
CN(C)c1nc(F)c(F)c(S(=O)(=O)c2ccccc2)c1F | 13.2
NS(=O)(=O)c1ccc(N=Nc2c(-c3ccccc3)[nH]n(-c3nc(-c4ccccc4)cs3)c2=O)cc1 | 9.77
C[C@@H]1NC(=O)c2cc([N+](=O)[O-])cc(I)c2NCCCC[C@@H](C(N)=O)NC(=O)[C@H](CCC(=O)O)NC1=O | -2.24
O=C(Nc1nnc(-c2cccs2)o1)c1cc(-c2ccccc2)nc2ccccc12 | -0.0258
Cc1ccc(S(=O)(=O)N(C)Cc2ccc(C(=O)N/N=C/c3ccc(OC(F)F)cc3OC(F)F)cc2)cc1 | 9.87
Clc1nccnc1-c1ccccc1 | 9.54
Cc1cccc2cc3c(N)c(C(=O)Nc4ccc(N5CCOCC5)cc4)sc3nc12 | 2.09
CC(=O)c1sc(-c2ccc(F)cc2)cc1NS(=O)(=O)c1ccc(C)cc1 | 12.5
CC(C)(C)OC(=O)NCCCCCNC(=O)c1[nH]cnc1C(=O)Nc1ccc(Cl)cc1 | 15.1
Cc1ccc(-n2c(=O)cc(N3CCc4ccccc4C3)[nH]c2=O)cc1 | 8.96
COc1cc(F)c(C2=CC(=O)C[C@H](c3ccc4c(c3)OCO4)C2)cc1F | 9.28
COC(=O)C1=C(O)/C(=C\c2ccc(OCC(=O)Nc3ccc(OC)cc3)cc2)N=C1C | 11.2
Cc1ccc(C(c2nnnn2C(C)(C)C)N2CCC(C)CC2)cc1.Cl (stereo not drawn) | -5.74
Cc1nnc(N2CCOCC2)c2ccccc12 | 10.8
COc1cccc(C(=O)NCc2ccc3c(c2)OCO3)c1 | 15.8
CC(=O)C(Cc1ccccc1)NC(=O)CCl (stereo not drawn) | 12.1
Cc1c(C(=O)NCc2nnc(-c3ccccc3)o2)oc2c(F)cccc12 | 5.92
O=C1CCCN1CCC1CCN(C2CC(=O)N(c3ccc(F)cc3)C2=O)CC1 (stereo not drawn) | 4.58
NC(=O)c1ccc(Br)c(S(=O)(=O)N2CCCCC2)c1 | 0.153
COc1cc(Nc2cc(C)nc3ncnn23)cc(OC)c1 | -1.96
CCc1c(C)sc(NC(=O)Cn2nc(C(F)(F)F)c3c2CCCC3)c1C#N | -1.36

Structure (SMILES) | hERG current change (%, negative = inhibition) at 1uM [%]
Cc1cc(C)cc(N(CCC#N)C(=O)COC(=O)C2CCN(S(=O)(=O)c3ccc(C)c(C)c3)CC2)c1 | 4.75
CC1=C(C(=O)Nc2cccc([N+](=O)[O-])c2)C2(CCC(C)CC2)OC1=O (stereo not drawn) | 4.04
CCn1nc(C)c(CNC(=O)CC2C(=O)NCCN2CC(C)(C)C)c1C (stereo not drawn) | 15.3
CC(=O)c1cccc(NC(=O)NNC(=O)c2ccc3ccccc3c2)c1 | -2.36
O=C(O)C1C2C=CC(C2)C1C(=O)NCCCn1ccnc1 (stereo not drawn) | 2.32
CCCc1ccc(Oc2cc(NN3CCCCC3)c([N+](=O)[O-])cc2[N+](=O)[O-])cc1 | -3.09
CNC(=O)Oc1ccc(C(=O)N2c3ccccc3NC(=O)C2C)cc1 (stereo not drawn) | 12.1
Cc1ccc(NC(=O)CNC(=O)c2ccco2)c(Cl)c1 | 4.85
CC(=O)c1sc(NC(=O)C2(F)C(F)(F)C(F)(F)C(F)(F)C(F)(F)C2(F)F)nc1C | 13.7
COc1ccc(NC(=O)CSc2nc3c(cc2C#N)CN(C)CC3)cc1 | 1.84
O=C(NCCN1CCOCC1)c1cc(Sc2ccccc2Cl)nc2ccccc12 | -2.55
O=C(O)c1ccccc1-c1ncc(-c2ccccc2)o1 | 4.93
C#CCOc1ccc(/C=N/NC(=O)c2cccnc2)cc1OCC | -5.67
COc1ccc(-c2[nH]ncc2CN2CCCC(C(=O)c3ccc(OC)cc3OC)C2)cc1 (stereo not drawn) | -47.3
O=C(CCN1CCN(c2ccccc2F)CC1)Nc1cccc(F)c1 | 3.23
CCOc1ccc2nc(SCC(=O)N(CCOC)c3c(N)n(Cc4ccccc4)c(=O)[nH]c3=O)[nH]c2c1 | 14.1
CCOC(=O)c1c(C)[nH]c(C=Nc2ccc(OC)cc2)c1O | 2.76
CCOC(=O)c1[nH]c2cc3c(cc2c1NC(=O)CN1CCC2(CC1)OCCO2)OCO3 | 8.62
Cc1cccc(OCCn2c(S(=O)(=O)O)nc3ccccc32)c1 | 3.9
COc1ccc(Cl)cc1C(=O)Nc1ccc(CN2CCCCC2)cc1 | -4.8
CCCCCCC(=O)N/N=C/c1c(O)n(CCc2ccccc2)c(=O)[nH]c1=O | 7.62
